# Paper PMC4605305, “TRAP150 interacts with the RNA-binding domain of PSF and antagonizes splicing of numerous PSF-target genes in T cells” (Nucleic Acids Research, 2015)
# These are yes or no findings as the source states them, for the method shown. For some of these results: Binding seen in cells or lysates may run through a third protein. Some results given as binding are weak or reduced against the parent protein; the word gives no strength. For some of these results: Tags and fused reporters may be left off the sequences shown.
# T1: GST-TRAPΔN (TRAP150 266-955) (UniProt Q9Y2W1)
# T1 sequence: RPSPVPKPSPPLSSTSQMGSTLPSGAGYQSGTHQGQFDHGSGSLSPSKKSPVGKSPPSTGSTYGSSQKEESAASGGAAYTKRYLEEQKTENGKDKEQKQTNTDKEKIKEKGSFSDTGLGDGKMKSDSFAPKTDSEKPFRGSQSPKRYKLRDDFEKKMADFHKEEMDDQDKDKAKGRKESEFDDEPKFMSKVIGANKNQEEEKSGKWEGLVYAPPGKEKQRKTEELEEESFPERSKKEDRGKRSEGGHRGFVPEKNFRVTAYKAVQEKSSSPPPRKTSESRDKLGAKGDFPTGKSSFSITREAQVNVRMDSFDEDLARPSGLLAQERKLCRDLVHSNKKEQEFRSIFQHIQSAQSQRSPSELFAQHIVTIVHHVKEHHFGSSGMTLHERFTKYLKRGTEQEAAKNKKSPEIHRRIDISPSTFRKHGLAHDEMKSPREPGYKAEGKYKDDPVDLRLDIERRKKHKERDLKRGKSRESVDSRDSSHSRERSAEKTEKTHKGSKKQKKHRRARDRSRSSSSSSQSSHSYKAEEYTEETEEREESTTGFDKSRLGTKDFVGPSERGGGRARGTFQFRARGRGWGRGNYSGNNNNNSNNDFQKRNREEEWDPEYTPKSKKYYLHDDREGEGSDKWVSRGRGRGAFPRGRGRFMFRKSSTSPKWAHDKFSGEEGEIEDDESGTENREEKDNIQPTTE
# B1: His-hnRNPL (protein, UniProt P14866 1-589)
# chain: MSRRLLPRAEKRRRRLEQRQQPDEQRRRSGAMVKMAAAGGGGGGGRYYGGGSEGGRAPKRLKTDNAGDQHGGGGGGGGGAGAAGGGGGGENYDDPHKTPASPVVHIRGLIDGVVEADLVEALQEFGPISYVVVMPKKRQALVEFEDVLGACNAVNYAADNQIYIAGHPAFVNYSTSQKISRPGDSDDSRSVNSVLLFTILNPIYSITTDVLYTICNPCGPVQRIVIFRKNGVQAMVEFDSVQSAQRAKASLNGADIYSGCCTLKIEYAKPTRLNVFKNDQDTWDYTNPNLSGQGDPGSNPNKRQRQPPLLGDHPAEYGGPHGGYHSHYHDEGYGPPPPHYEGRRMGPPVGGHRRGPSRYGPQYGHPPPPPPPPEYGPHADSPVLMVYGLDQSKMNCDRVFNVFCLYGNVEKVKFMKSKPGAAMVEMADGYAVDRAITHLNNNFMFGQKLNVCVSKQPAIMPGQSYGLEDGSCSYKDFSESRNNRFSTPEQAAKNRIQHPSNVLHFFNAPLEVTEENFFEICDELGVKRPSSVKVFSGKSERSSSGLLEWESKSDALETLGFLNHYQMKNPNGPYPYTLKLCFSTAQHAS
# B2: HisFLAG-PSF ΔRRMs (protein, UniProt P23246 1-298; P23246 450-707)
# chain: MSRDRFRSRGGGGGGFHRRGGGGGRGGLHDFRSPPPGMGLNQNRGPMGPGPGQSGPKPPIPPPPPHQQQQQPPPQQPPPQQPPPHQPPPHPQPHQQQQPPPPPQDSSKPVVAQGPGPAPGVGSAPPASSSAPPATPPTSGAPPGSGPGPTPTPPPAVTSAPPGAPPPTPPSSGVPTTPPQAGGPPPPPAAVPGPGPGPKQGPGPGGPKGGKMPGGPKPGGGPGLSTPGGHPKPPHRGGGEPRGGRQHHPPYHQQHHQGPPPGGPGGRSEEKISDSEGFKANLSLLRRPGEKTYTQRCRGGSGHMLEQLDDEDGLPEKLAQKNPMYQKERETPPRFAQHGTFEYEYSQRWKSLDEMEKQQREQVEKNMKDAKDKLESEMEDAYHEHQANLLRQDLMRRQEELRRMEELHNQEMQKRKEMQLRQEEERRRREEEMMIRQREMEEQMRRQREESYSRMGYMDPRERDMRMGGGGAMNMGDPYGSGGQKFPPLGGGGGIGYEANPGVPPATMSGSMMGSDMRTERFGQGGAGPVGGQGPRGMGPGTPAGYGRGREEYEGPNKKPRF
# B3: HisFLAG-PSF exRRM2 (366-484) (domain or fragment, UniProt P23246 366-484)
# chain: FATHAAALSVRNLSPYVSNELLEEAFSQFGPIERAVVIVDDRGRSTGKGIVEFASKPAARKAFERCSEGVFLLTTTPRPVIVEPLEQLDDEDGLPEKLAQKNPMYQKERETPPRFAQHG
# B4: HisFLAG-PSF exRRM1 (266-365) (domain or fragment, UniProt P23246 266-365)
# chain: GRSEEKISDSEGFKANLSLLRRPGEKTYTQRCRLFVGNLPADITEDEFKRLFAKYGEPGEVFINKGKGFGFIKLESRALAEIAKAELDDTPMRGRQLRVR
# B5: HisFLAG-PSF minRRMs (299-449) (domain or fragment, UniProt P23246 299-449)
# chain: LFVGNLPADITEDEFKRLFAKYGEPGEVFINKGKGFGFIKLESRALAEIAKAELDDTPMRGRQLRVRFATHAAALSVRNLSPYVSNELLEEAFSQFGPIERAVVIVDDRGRSTGKGIVEFASKPAARKAFERCSEGVFLLTTTPRPVIVEP
# B6: PSPC1 (endogenous, JSL1 nuclear extract) (protein, UniProt Q8WXF1 1-523)
# chain: MMLRGNLKQVRIEKNPARLRALESAVGESEPAAAAAMALALAGEPAPPAPAPPEDHPDEEMGFTIDIKSFLKPGEKTYTQRCRLFVGNLPTDITEEDFKRLFERYGEPSEVFINRDRGFGFIRLESRTLAEIAKAELDGTILKSRPLRIRFATHGAALTVKNLSPVVSNELLEQAFSQFGPVEKAVVVVDDRGRATGKGFVEFAAKPPARKALERCGDGAFLLTTTPRPVIVEPMEQFDDEDGLPEKLMQKTQQYHKEREQPPRFAQPGTFEFEYASRWKALDEMEKQQREQVDRNIREAKEKLEAEMEAARHEHQLMLMRQDLMRRQEELRRLEELRNQELQKRKQIQLRHEEEHRRREEEMIRHREQEELRRQQEGFKPNYMENREQEMRMGDMGPRGAINMGDAFSPAPAGNQGPPPMMGMNMNNRATIPGPPMGPGPAMGPEGAANMGTPMMPDNGAVHNDRFPQGPPSQMGSPMGSRTGSETPQAPMSGVGPVSGGPGGFGRGSQGGNFEGPNKRRRY
# B7: Matrin 3 (endogenous, JSL1 nuclear extract) (protein, UniProt P43243 1-847)
# chain: MSKSFQQSSLSRDSQGHGRDLSAAGIGLLAAATQSLSMPASLGRMNQGTARLASLMNLGMSSSLNQQGAHSALSSASTSSHNLQSIFNIGSRGPLPLSSQHRGDADQASNILASFGLSARDLDELSRYPEDKITPENLPQILLQLKRRRTEEGPTLSYGRDGRSATREPPYRVPRDDWEEKRHFRRDSFDDRGPSLNPVLDYDHGSRSQESGYYDRMDYEDDRLRDGERCRDDSFFGETSHNYHKFDSEYERMGRGPGPLQERSLFEKKRGAPPSSNIEDFHGLLPKGYPHLCSICDLPVHSNKEWSQHINGASHSRRCQLLLEIYPEWNPDNDTGHTMGDPFMLQQSTNPAPGILGPPPPSFHLGGPAVGPRGNLGAGNGNLQGPRHMQKGRVETSRVVHIMDFQRGKNLRYQLLQLVEPFGVISNHLILNKINEAFIEMATTEDAQAAVDYYTTTPALVFGKPVRVHLSQKYKRIKKPEGKPDQKFDQKQELGRVIHLSNLPHSGYSDSAVLKLAEPYGKIKNYILMRMKSQAFIEMETREDAMAMVDHCLKKALWFQGRCVKVDLSEKYKKLVLRIPNRGIDLLKKDKSRKRSYSPDGKESPSDKKSKTDGSQKTESSTEGKEQEEKSGEDGEKDTKDDQTEQEPNMLLESEDELLVDEEEAAALLESGSSVGDETDLANLGDVASDGKKEPSDKAVKKDGSASAAAKKKLKKVDKIEELDQENEAALENGIKNEENTEPGAESSENADDPNKDTSENADGQSDENKDDYTIPDEYRIGPYQPNVPVGIDYVIPKTGFYCKLCSLFYTNEEVAKNTHCSSLPHYQKLKKFLNKLAEERRQKKET
# Target: T1, GST-TRAPΔN (TRAP150 266-955)
# Assay: pull-down; 40 ug GST-tagged bait on glutathione sepharose 4B beads; prey incubated 1.5 h at 4°C in PBS; washes with PBS supplemented with 300 mM NaCl; western blot; both purified
row,binding,Binder
1,no binding,B1
2,no binding,B2
3,no binding,B3
4,no binding,B4
5,no binding,B5

# Substrate: T2, PSF (endogenous, JSL1 nuclear extract) (human (endogenous in JSL1 Jurkat cells)) (UniProt P23246)
# T2 sequence: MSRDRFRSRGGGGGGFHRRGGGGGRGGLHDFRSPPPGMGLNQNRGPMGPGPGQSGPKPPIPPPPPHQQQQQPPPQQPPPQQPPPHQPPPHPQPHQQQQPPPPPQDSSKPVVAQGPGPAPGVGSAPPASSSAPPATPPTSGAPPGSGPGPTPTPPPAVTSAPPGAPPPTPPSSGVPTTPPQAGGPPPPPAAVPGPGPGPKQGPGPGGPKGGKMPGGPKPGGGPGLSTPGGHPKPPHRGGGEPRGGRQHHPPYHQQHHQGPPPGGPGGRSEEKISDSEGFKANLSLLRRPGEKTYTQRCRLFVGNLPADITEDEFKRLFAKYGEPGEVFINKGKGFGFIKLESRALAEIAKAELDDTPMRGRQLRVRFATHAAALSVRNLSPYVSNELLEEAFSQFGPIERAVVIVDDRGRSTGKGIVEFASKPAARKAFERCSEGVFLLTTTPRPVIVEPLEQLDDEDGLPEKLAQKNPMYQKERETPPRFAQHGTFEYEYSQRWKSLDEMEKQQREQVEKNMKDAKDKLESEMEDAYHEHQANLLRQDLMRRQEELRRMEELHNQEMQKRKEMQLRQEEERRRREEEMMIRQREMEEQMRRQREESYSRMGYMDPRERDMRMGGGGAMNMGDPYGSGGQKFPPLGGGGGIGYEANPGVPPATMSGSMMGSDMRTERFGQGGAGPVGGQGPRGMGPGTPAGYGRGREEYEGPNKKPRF
# Assay: co-IP; IP with PSF antibody from RNase-treated nuclear extract of JSL1 cells, unstimulated or stimulated with PMA; protein G Dynabeads; western blot
row,binding,Binder
1,binds,B6
2,binds,B7
